As usually defined, the EC50 is the concentration that produces a half-maximal response.

Three molecules from patent publication US20250019442A1 (LANOVA MEDICINES, published 2025) can be followed below.

The target of experiment [1] is T1, human PD-1 overexpressed on cells (human, UniProt Q15116 25-288).
T1 construct: whole, on cells; also called CHO-K1 cells overexpressing human PD-1; Jurkat-PD1 cells
Kind of experiment: flow cytometry on CHO-K1 cells overexpressing human PD-1, PE secondary antibody. On the procedure: (§1) To further determine PD-1 binding activity of the bispecific antibodies, CHO-K1 cells overexpressing human PD-1 were incubated with different concentrations of anti-PD1-VEGF bispecific antibodies and reference antibodies at 4° C. for 30 minutes. Then, the cells were washed twice with FACS buffer and stained with PE conjugated secondary antibody at 4° C. for 30 minutes. After wash twice with FACS buffer, MFI of PE was analyzed by a NovoCyte flow cytometer.
In general terms: Flow cytometry measures light scatter and fluorescence of single cells or particles in a stream.

The target of experiment [2] is T1, human PD-1 overexpressed on cells. Kind of experiment: flow cytometry on CHO-K1 cells overexpressing human PD-1; column headed OD450 but the text says MFI of PE. The arrangement: unit not given here. How it is done: as §1
T1 sequence (Q15116 25-288): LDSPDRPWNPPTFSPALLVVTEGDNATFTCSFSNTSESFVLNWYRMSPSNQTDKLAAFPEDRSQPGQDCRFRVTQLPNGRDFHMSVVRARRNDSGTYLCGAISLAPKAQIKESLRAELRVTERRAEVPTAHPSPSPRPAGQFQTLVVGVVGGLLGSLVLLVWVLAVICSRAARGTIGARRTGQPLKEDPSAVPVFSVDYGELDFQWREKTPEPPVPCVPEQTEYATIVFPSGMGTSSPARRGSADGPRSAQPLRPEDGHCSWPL
The target of experiment [3] is T2, human VEGF protein (human, UniProt P15692-4 27-191, limits assumed).
T2 construct: also called soluble VEGF
T2 sequence (looked up): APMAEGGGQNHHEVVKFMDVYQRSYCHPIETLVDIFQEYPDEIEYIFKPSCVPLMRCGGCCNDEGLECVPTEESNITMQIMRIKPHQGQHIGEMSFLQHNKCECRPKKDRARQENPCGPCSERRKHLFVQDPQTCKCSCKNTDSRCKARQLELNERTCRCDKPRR
In words: ELISA, human VEGF coated at 0.5 ug/ml, anti-human IgG-HRP detection.

For a further experiment, the target named is T3, cynomolgus PD1 (cynomolgus, UniProt B0LAJ3 25-170).
T3 construct: Recombinant protein for ELISA; also called cynomolgus PD1 protein
In words: ELISA, cynomolgus PD1 coated, anti-human IgG-HRP detection. On the procedure:
(§2) To evaluate PD1 binding activity of the test bispecific antibodies, human PD1 and cynomolgus PD1 diluted in PBS were coated on a microplate respectively at 4° C. overnight. Three-fold dilution of test antibodies starting from 100 nM were added to each well and incubated for 1 hours at 25° C. Then, the plates were washed with ELISA washing buffer (1×DPBS with 0.5% Tween-20) and incubated with peroxidase conjugated anti-human IgG secondary antibody for 60 minutes at 25° C. After washed four times with ELISA washing buffer, the plates were detected by TMB-ELISA substrate solution, then stopped by ELISA stopping solution and analyzed by microplate reader at OD450 nm.
Background: ELISA stands for enzyme-linked immunosorbent assay.

The target of experiment [4] is T2, human VEGF protein. Kind of experiment: cell-based or functional assay.
For experiment [5], the target named is T1, human PD-1 overexpressed on cells. In words: cell-based or functional assay.
The next experiment concerns the target T4, human PD1 (human, UniProt Q15116 partial chain, limits assumed).
T4 construct: Recombinant protein for ELISA; also called human PD1 protein
Kind of experiment: ELISA, human PD1 coated, anti-human IgG-HRP detection. On the procedure:
as §2

Experiment [6] deals with T2, human VEGF protein. Kind of experiment: cell-based or functional assay. This is another data set of the same source.

human PD1, sequence (Q15116 25-167 limits assumed): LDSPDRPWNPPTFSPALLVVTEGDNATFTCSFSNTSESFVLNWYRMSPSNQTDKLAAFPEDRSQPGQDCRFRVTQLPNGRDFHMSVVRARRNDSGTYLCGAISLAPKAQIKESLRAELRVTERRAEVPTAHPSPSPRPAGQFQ
cynomolgus PD1, sequence (B0LAJ3 entry or part of it limits assumed, form in doubt): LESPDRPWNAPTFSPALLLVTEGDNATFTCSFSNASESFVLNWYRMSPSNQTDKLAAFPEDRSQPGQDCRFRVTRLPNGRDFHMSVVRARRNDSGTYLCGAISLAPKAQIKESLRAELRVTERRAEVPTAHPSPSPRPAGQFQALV

B1: B12D1-6 (bispecific antibody, human IgG1, kappa)
heavy: EVQLVESGGGLVQPGGSLRLSCAASGYTFTNYGMNWVRQAPGKGLEWVGWINTYTGEPTYAADFKRRFTFSLDTSKSTAYLQMNSLRAEDTAVYYCAKYPHYYGSSHWYFDVWGQGTLVTVSS[left out - human IgG1 constant region with changes]GGGGSGGGGSGGGGSGGGGSEVQLVESGGGLVQPGGSLRLSCAVSGNIYNRNFMGWFRQAPGKGREGVSAIYTGTSRTYYADSVKGRFTISRDNAKNTVYLQMNSLRPEDTAVYYCAADLRDGFWDTGVWNTWGQGTLVTVSSGGGGSGGGGSGGGGSGGGGSEVQLVESGGGLVQPGGSLRLSCAVSGNIYNRNFMGWFRQAPGKGREGVSAIYTGTSRTYYADSVKGRFTISRDNAKNTVYLQMNSLRPEDTAVYYCAADLRDGFWDTGVWNTWGQGTLVTVSS
light: DIQMTQSPSSLSASVGDRVTITCSASQDISNYLNWYQQKPGKAPKVLIYFTSSLHSGVPSRFSGSGSGTDFTLTISSLQPEDFATYYCQQYSTVPWTFGQGTKVEIKRTVAAPSVFIFPPSDEQLKSGTASVVCLLNNFYPREAKVQWKVDNALQSGNSQESVTEQDSKDSTYSLSSTLTLSKADYEKHKVYACEVTHQGLSSPVTKSFNRGEC
notes: Full-length IgG-VHH fusion; 4 anti-PD-1 VHH (VH18) per molecule; produced transiently in CHO-K1 cells; also called anti-PD1-VEGF bispecific antibody B12D1-6
For the molecule B1, the concentration for a half-maximal effect (EC50) in experiment [1] is 1.36 nM; in the experiment with human VEGF protein [3], 0.068 nM; in the experiment with cynomolgus PD1 it was 0.394 nM; with human PD1 it was 0.078 nM. Moreover, the “Top (OD450)” value in experiment [2] was 625000; in the experiment with human VEGF protein [3] it was 2.2 OD450; in the experiment with cynomolgus PD1, 1.3 OD450; in the experiment with human PD1 it was 1.59 OD450. Besides, in the experiment with human VEGF protein [4], the “EC50 (nM), VEGF Reporter Gene Assay” value was found to be 0.344 nM. Also, in the experiment with human VEGF protein [4], the “Top (RLU), VEGF Reporter Gene Assay” value came to 23500 RLU. In addition, the “EC50 (nM), PD1 blocking activity (PD1 reporter gene assay)” value (from here on “EC50 (nM), PD1 blocking activity”) in experiment [5] came out at 7.84 nM. In experiment [5], the “Top (RLU), PD1 blocking activity (PD1 reporter gene assay)” value is 207000 RLU.

B2: B12D1-9 (bispecific antibody, human IgG1, kappa)
heavy: EVQLVESGGGLVQPGGSLRLSCAASGYTFTNYGMNWVRQAPGKGLEWVGWINTYTGEPTYAADFKRRFTFSLDTSKSTAYLQMNSLRAEDTAVYYCAKYPHYYGSSHWYFDVWGQGTLVTVSSASTKGPSVFPLAPSSKSTSGGTAALGCLVKDYFPEPVTVSWNSGALTSGVHTFPAVLQSSGLYSLSSVVTVPSSSLGTQTYICNVNHKPSNTKVDKKV[left out - human IgG1 Fc with changes]GGGGSGGGGSGGGGSGGGGSEVQLVESGGGLVQPGGSLRLSCAVSGNIYNRNFMGWFRQAPGKGREGVSAIYTGTSRTYYADSVKGRFTISRDNAKNTVYLQMNSLRPEDTAVYYCAADLRDGFWDTGVWNTWGQGTLVTVSS
light: DIQMTQSPSSLSASVGDRVTITCSASQDISNYLNWYQQKPGKAPKVLIYFTSSLHSGVPSRFSGSGSGTDFTLTISSLQPEDFATYYCQQYSTVPWTFGQGTKVEIKRTVAAPSVFIFPPSDEQLKSGTASVVCLLNNFYPREAKVQWKVDNALQSGNSQESVTEQDSKDSTYSLSSTLTLSKADYEKHKVYACEVTHQGLSSPVTKSFNRGEC
notes: Full-length IgG-VHH fusion; 2 anti-PD-1 VHH (VH18) per molecule; also called anti-PD-1-VEGF bi-specific antibody B12D1-9
B2: the “IC50 (nM), Inhibition of VEGF-Induced Cell Proliferation (HUVEC)” value in the experiment with human VEGF protein [6] was found to be 0.907 nM. Further, the 50% effective concentration (EC50) in experiment [1] was found to be 3.95 nM; in the experiment with human VEGF protein [3], 0.114 nM; with cynomolgus PD1 it was 0.958 nM; in the experiment with human PD1, 0.169 nM. Moreover, the “Top (OD450)” value in experiment [2] is 617000; with human VEGF protein [3], 2.16 OD450; with cynomolgus PD1, 1.3 OD450; with human PD1 it was 1.63 OD450. Besides, in the experiment with human VEGF protein [4], the “EC50 (nM), VEGF Reporter Gene Assay” value came to 0.493 nM. Also, in the experiment with human VEGF protein [4], the “Top (RLU), VEGF Reporter Gene Assay” value was found to be 23800 RLU. For the same molecule, in experiment [5], the “EC50 (nM), PD1 blocking activity” value worked out at 37.9 nM. Further, in experiment [5], the “Top (RLU), PD1 blocking activity (PD1 reporter gene assay)” value came out at 141000 RLU.

B3: B12D1-10 (bispecific antibody, human IgG1, kappa)
heavy: EVQLVESGGGLVQPGGSLRLSCAASGYTFTNYGMNWVRQAPGKGLEWVGWINTYTGEPTYAADFKRRFTFSLDTSKSTAYLQMNSLRAEDTAVYYCAKYPHYYGSSHWYFDVWGQGTLVTVSSASTKGPSVFPLAPSSKSTSGGTAALGCLVKDYFPEPVTVSWNSGALTSGVHTFPAVLQSSGLYSLSSVVTVPSSSLGTQTYICNVNHKPSNTKVDKKV[left out - human IgG1 Fc with changes]GGGGSGGGGSGGGGSGGGGSEVQLVESGGGLVQPGGSLRLSCAVSGNIYNRNFMGWFRQAPGKGLEGVSAIYTGTSRTYYADSVKGRFTISRDNSKNTVYLQMNSLRAEDTAVYYCAADLREGFWDTGVWNTWGQGTLVTVSS
light: DIQMTQSPSSLSASVGDRVTITCSASQDISNYLNWYQQKPGKAPKVLIYFTSSLHSGVPSRFSGSGSGTDFTLTISSLQPEDFATYYCQQYSTVPWTFGQGTKVEIKRTVAAPSVFIFPPSDEQLKSGTASVVCLLNNFYPREAKVQWKVDNALQSGNSQESVTEQDSKDSTYSLSSTLTLSKADYEKHKVYACEVTHQGLSSPVTKSFNRGEC
notes: Full-length IgG-VHH fusion; 2 anti-PD-1 VHH (VH8M1) per molecule; also called anti-PD1-VEGF bispecific antibody B12D1-10
As for B3, in experiment [1], the EC50 amounted to 2.3 nM. Further, the “Top (OD450)” value in experiment [2] was determined as 296000. Moreover, in the experiment with human VEGF protein [3], the midpoint of the response, the EC50, lay at 0.134 nM and the “Top (OD450)” value was 2.22 OD450. In addition, in the experiment with human VEGF protein [4], the “EC50 (nM), VEGF Reporter Gene Assay” value turned out to be 0.567 nM and the “Top (RLU), VEGF Reporter Gene Assay” value amounted to 24400 RLU. The “EC50 (nM), PD1 blocking activity” value in experiment [5] came to 5.09 nM.
